Laboratory results reported in PubChem BioAssay AID720709 (National Center for Advancing Translational Sciences (NCATS), 2013).
Hit rate of the full screen: of about 360,000 compounds, about 520 (0.14%) were called active. This list was built around the results that the source calls inconclusive (neither active nor inactive); the mix of calls is not that of the screen. Calls come from the whole dose curve; as a rule, active = well fitted inhibition curve with a large enough effect; inconclusive = small, poorly fitted or top-dose-only effect; inactive = no such curve, though single readings can be large or run the other way. Potencies beside an inconclusive call are fits to weak or partial responses and may not hold up.

target: Rap guanine nucleotide exchange factor 3 (Homo sapiens) (UniProt O95398); test: qHTS for Antagonist of cAMP-regulated guanine nucleotide exchange factor 3 (EPAC1): primary screen; settings: EPAC1 GEF assay, Rap1b-BODIPY-GDP exchange fluorescence; series mostly up to 115 µM; note: nearly all actives have a fitted effect of over 50% in size
Sequence of UniProt O95398 (O95398 whole entry, looked up): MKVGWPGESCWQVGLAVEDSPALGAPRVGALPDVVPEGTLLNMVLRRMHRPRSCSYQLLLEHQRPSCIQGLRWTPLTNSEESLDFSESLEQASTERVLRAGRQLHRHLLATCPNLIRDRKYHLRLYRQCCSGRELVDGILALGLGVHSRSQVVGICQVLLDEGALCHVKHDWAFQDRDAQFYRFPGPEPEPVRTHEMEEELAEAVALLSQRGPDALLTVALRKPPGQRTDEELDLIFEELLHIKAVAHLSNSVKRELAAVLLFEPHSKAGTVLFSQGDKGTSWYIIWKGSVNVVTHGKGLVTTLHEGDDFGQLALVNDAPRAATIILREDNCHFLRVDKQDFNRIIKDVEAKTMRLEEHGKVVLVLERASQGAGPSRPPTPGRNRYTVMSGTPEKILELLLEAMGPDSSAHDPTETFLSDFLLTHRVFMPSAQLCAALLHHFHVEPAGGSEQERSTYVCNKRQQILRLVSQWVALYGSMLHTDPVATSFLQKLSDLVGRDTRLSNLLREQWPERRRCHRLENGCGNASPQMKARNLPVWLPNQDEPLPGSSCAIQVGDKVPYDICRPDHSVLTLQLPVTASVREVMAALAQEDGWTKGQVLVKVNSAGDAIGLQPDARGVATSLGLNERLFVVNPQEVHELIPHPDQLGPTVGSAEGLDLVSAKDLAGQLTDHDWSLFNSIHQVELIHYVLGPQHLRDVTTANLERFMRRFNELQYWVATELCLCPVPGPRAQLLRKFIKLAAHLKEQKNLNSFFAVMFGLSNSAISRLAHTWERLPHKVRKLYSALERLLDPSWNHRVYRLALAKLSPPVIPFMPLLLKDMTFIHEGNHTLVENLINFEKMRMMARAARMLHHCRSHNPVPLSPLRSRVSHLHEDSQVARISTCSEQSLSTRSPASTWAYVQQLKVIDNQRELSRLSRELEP
Potency is the fitted concentration of half-maximal effect; tags give direction and shape of the fitted curve.

Potency, active:
O=C(N/N=C/c1ccc(F)cc1)c1cc(-c2ccco2)nc2ccccc12 79.4 µM
CC(C)(C)c1cc(=O)n(-c2ccccc2)[nH]1 50.1 µM

Potency, inactive:
COc1ccc2c(c1)c1ncn(CCN3CCCC3)c(=O)c1n2C
OCCCNC(=S)Nc1ccc2nc(-c3ccccn3)c(-c3ccccn3)nc2c1
COc1ccc(CNC(=O)Nc2cccs2)cc1OC
O=C(Cn1ccc(=O)[nH]c1=O)c1ccc([N+](=O)[O-])o1
COc1cc(/C=N\NC(=O)c2ccc(-c3ccccc3)cc2)ccc1OCC(N)=O
CN(C)CCCN(C(=O)c1ccc(S(=O)(=O)N(C)C2CCCCC2)cc1)c1nc2ccc(F)cc2s1
CN(C)Cc1n[nH]c(=O)c2ccccc12
C[C@H](CO)N1C[C@H](C)[C@@H](CN(C)C(=O)CN2CCOCC2)Oc2cc(Br)ccc2S1(=O)=O
O=[N+]([O-])c1ccc(NCCCNS(=O)(=O)c2ccc(Cl)cc2)c(Cl)c1
CCCCNC(=O)C1C(c2ccc(C(F)(F)F)cc2)=Nc2ccccc2N1C(=O)c1cccc2ccccc12 (stereo not given)
O=C(/C=C/c1ccc(O)cc1)c1ccc(O)cc1O
CCCCc1c(-c2ccccc2F)ncn1CCc1ccccc1OC
COc1ccc(OC)c(/C=N/c2oc(-c3ccco3)c(-c3ccco3)c2C#N)c1
COCCC(=O)N1CCC(Oc2ccc(C(=O)N3CCC(N(C)C)C3)cc2)CC1 (stereo not given)
CCN(CC)S(=O)(=O)c1ccc2c(c1)nc(CCC(=O)Nc1ccc3c(c1)OCO3)n2C
CCOc1ccc(OCc2ccc(C(=O)O)o2)cc1
CC1(C)CC2(CC(c3ccccc3)Oc3cc(O)ccc32)NC(=S)N1 (stereo not given)

Potency, inconclusive:
COc1ccc(/C=C/C(=O)NC(=S)NNC(=O)c2ccco2)cc1 28.2 µM [inhibitor, single point]
CCC(=O)N1N=C2CC(C)(C)OCC2C1c1ccccc1 (stereo not given) 89.1 µM [inhibitor, single point]
O=C(NC1CCCCC1)c1ccc2c(=O)n(CC3CCCO3)c(=O)[nH]c2c1 (stereo not given) 22.4 µM [inhibitor, partial curve]
CCCCOc1ccc(C(=O)Nc2ccc3c(c2)C(=O)NC3=O)cc1 56.2 µM [inhibitor, partial curve, poor fit]
Cc1nc(CSc2ccc(Cl)cc2)cc(N2CC(C)OC(C)C2)n1 (stereo not given) 50.1 µM [inhibitor, partial curve]
Cn1nc(C(=O)N2CCN(c3ccc(F)cc3)CC2)c2c1-c1ccccc1S(=O)(=O)C2 7.94 µM [inhibitor, full curve, poor fit]
Cc1ccc(S(=O)(=O)n2ccc(OC(=O)c3cccs3)n2)cc1 50.1 µM [inhibitor, partial curve]
C/C(=N\NC(=O)c1nnn(-c2nonc2N)c1-c1cccs1)c1ccncc1 100 µM [inhibitor, single point]
Nc1nc2n(n1)C(c1cccc(Br)c1)CC(c1ccccc1)N2 (stereo not given) 31.6 µM [inhibitor, partial curve, poor fit]
O=c1oc(CCO)cc2ccc(C#Cc3ccsc3)cc12 3.98 µM [inhibitor, full curve, poor fit]
COc1cccc(CN2CCCC(C(=O)Nc3ccc(-c4cscn4)cc3)C2)c1 (stereo not given) 56.2 µM [inhibitor, partial curve]
O=C(NN1C(=O)/C(=C/C=C/c2ccco2)SC1=S)c1ccccc1O 14.1 µM [inhibitor, full curve]
Cc1ccc(NC(=O)NC2CCCCCCC2)cc1C 2.82 µM [inhibitor, full curve, poor fit]
Cc1ccc(N=CC2=C(O)CC(c3cccc(Cl)c3)CC2=O)cc1 (stereo not given) 89.1 µM [inhibitor, single point]
Cc1ccnc(NS(=O)(=O)c2ccc(NS(=O)(=O)c3cc(Cl)ccc3Cl)cc2)n1 100 µM [inhibitor, single point]
COC(=O)C(NC(=O)CCc1c(C)nc2c(c(C)nn2-c2ccccc2)c1C)C(C)C (stereo not given) 44.7 µM [inhibitor, partial curve]
Cc1cc(C)c(S(=O)(=O)/N=C2/C=C(SCC(=O)O)C(=O)c3ccccc32)cc1C 44.7 µM [inhibitor, partial curve]
CSc1cccc(NC(=S)N(C(C)C)C(C)c2ccccn2)c1 (stereo not given) 100 µM [inhibitor, partial curve, poor fit]
Nc1ccccc1C(O)(Cc1ccccc1)c1ccccc1 (stereo not given) 79.4 µM [inhibitor, partial curve]
CCN(CC)CCNC(=O)c1cc2c(=O)n(C)c3ccccc3c2n1C 89.1 µM [inhibitor, single point]
CCc1cc(-c2cnnn2CCc2c[nH]c3ccccc23)ccc1-c1cn(CC(C)C)nn1 70.8 µM [inhibitor, single point]
O=C(/C(=N/N=C/c1ccc(O)c(O)c1)c1ccccc1)c1ccccc1 89.1 µM [inhibitor, partial curve]
CCOc1ccc(CCN2C(=O)C(=O)N([C@@H](Cc3ccccc3)CN3CCC[C@H]3CN3C(=O)C(=O)NC[C@@H]3CC(C)C)C[C@@H]2Cc2ccc(O)cc2)cc1 89.1 µM [inhibitor, single point]
COc1cccc(/C=C(/C(=O)OCC(=O)NC2CCCC(C)C2C)c2ccccc2)c1 (stereo not given) 28.2 µM [inhibitor, full curve, poor fit]
COc1ccc(CNc2oc(-c3ccccc3)nc2C#N)cc1 39.8 µM [inhibitor, single point]
O=C(O)c1ccc(NC(=S)Nc2ccccc2)cc1 3.16 µM [inhibitor, full curve, poor fit]
CC1CCN(C(=O)C(Cc2ccccc2)n2cccc2)CC1 (stereo not given) 89.1 µM [inhibitor, single point]
COc1ccc(OC)c(NC(=O)CN(Cc2ccc(Cl)cc2)S(C)(=O)=O)c1 56.2 µM [inhibitor, partial curve, poor fit]
CN(C(=O)COc1cc(=O)n(C)c2ccccc12)c1ccc(Br)cc1 79.4 µM [inhibitor, single point]
NC(=O)c1ccc(N=C2C(=O)Nc3ccc([N+](=O)[O-])cc32)cc1 56.2 µM [inhibitor, partial curve]
COC(=O)c1ccccc1N1CCS(=O)(=O)CC1 70.8 µM [inhibitor, single point]
O=C(Nc1nc(-c2ccccc2)cs1)c1ccccc1NS(=O)(=O)c1ccc(F)cc1 89.1 µM [inhibitor, single point]
CN(Cc1ccccc1)C(=O)c1ccc(NC(=O)Cc2cccc(NC(=O)C3CCCN(C(=O)C4CCC4)C3)c2)cc1 (stereo not given) 79.4 µM [inhibitor, single point]
COc1ccccc1C(NC(=O)C1CCN(CCOc2ccc(Cl)cc2)CC1)c1ccccn1 (stereo not given) 15.8 µM [inhibitor, single point]
Cc1cc([N+](=O)[O-])ccc1NC(=O)c1cccc(NC(=O)C(C)C)c1 100 µM [inhibitor, single point]
COc1cccc(/C=N/NC(=O)c2cc(-c3cccn3C)n[nH]2)c1O 17.8 µM [inhibitor, partial curve]
CN(c1ccccc1)S(=O)(=O)c1ccc(Cl)c(C(=O)OCC(=O)c2c(N)n(C)c(=O)n(C)c2=O)c1 14.1 µM [inhibitor, full curve, poor fit]
COc1ccc(NC(C)C(=O)N/N=C/c2c(O)ccc3ccccc23)cc1 (stereo not given) 100 µM [inhibitor, single point]
Clc1cccc(Cc2c(-c3ccco3)nc3ccc(Cl)cn23)c1 79.4 µM [inhibitor, partial curve]
O=C(Nc1cccc(S(=O)(=O)NC2=NCCCCC2)c1)c1cc(-c2ccco2)nc2ccccc12 89.1 µM [inhibitor, single point]
Cc1ccc(S(=O)(=O)Nc2ccc(C(=O)N3CCN(c4ccccc4O)CC3)cc2)cc1[N+](=O)[O-] 31.6 µM [inhibitor, full curve]
CCCC(=O)Nc1nc(C)c(-c2csc(Nc3ccc(Cl)cc3)n2)s1 89.1 µM [inhibitor, partial curve]
CC[C@]12c3[nH]c4cc(CCC(=O)N(C)C)ccc4c3CCN1C(=O)[C@@H](CC(=O)NCc1ccc(OC)c(OC)c1)C[C@@H]2C(=O)N1CCN(C(=O)c2ccco2)CC1 89.1 µM [inhibitor, partial curve]
COc1ccc2nc(-c3cccc(N)c3)[nH]c2c1 10 µM [inhibitor, full curve, poor fit]
COC(=O)c1c(NC(=O)COC(=O)c2ccc(NC(=O)CC#N)cc2)sc2c1CCCCC2 44.7 µM [inhibitor, partial curve]
O/N=C/c1ccc(OCc2ccccc2F)c(Cl)c1 89.1 µM [inhibitor, single point]
